# Reference: PubChem BioAssay (Tox21)
# Several values for one entry are separate records, joined by “and”; a condition that tells them apart may be missing. Identical values can stand only once. The shares of active, inactive and inconclusive entries below differ from those in the screen. For part of these data: Potencies of inconclusive entries are doubtful fits and often do not repeat. Activity calls are given as the source filed them. Unless noted, calls come from the whole dose curve; as a rule, active = well fitted curve in the direction sought with a large enough effect in the repeat runs; inconclusive = weak or mixed curves; inactive = no such curve, though single readings can be large; an effect the other way counts as inactive or inconclusive.
# What was measured:
# [1] = qHTS assay to identify aromatase inhibitors - cell viability counter screen (AID 743084); details: MCF-7 aro ERE viability, CellTiter-Fluor, 24 h; activity change, negative = cytotoxicity: at 70.3 µM (top of the series);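 note: cells stimulated with testosterone during compound exposure; nearly all actives have a fitted effect of over 55% in size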; note: potency is the fitted concentration of half-maximal effect
# [2] = molecular target: Peroxisome proliferator-activated receptor gamma (Homo sapiens) (UniProt P37231); assay: qHTS assay to identify small molecule antagonists of the peroxisome proliferator-activated receptor gamma (PPARg) signaling pathway (AID 743191; calls by dose curve; note: nearly all actives have a fitted effect of over 30% in size; note: potency is the fitted concentration of half-maximal effect); details: HEK293H PPARg-UAS-bla, beta-lactamase ratio, antagonist, 17 h; ratio activity, negative = inhibition: at 62.6 µM (top of the series) unless noted
# UniProt P37231, sequence (P37231 whole entry, looked up): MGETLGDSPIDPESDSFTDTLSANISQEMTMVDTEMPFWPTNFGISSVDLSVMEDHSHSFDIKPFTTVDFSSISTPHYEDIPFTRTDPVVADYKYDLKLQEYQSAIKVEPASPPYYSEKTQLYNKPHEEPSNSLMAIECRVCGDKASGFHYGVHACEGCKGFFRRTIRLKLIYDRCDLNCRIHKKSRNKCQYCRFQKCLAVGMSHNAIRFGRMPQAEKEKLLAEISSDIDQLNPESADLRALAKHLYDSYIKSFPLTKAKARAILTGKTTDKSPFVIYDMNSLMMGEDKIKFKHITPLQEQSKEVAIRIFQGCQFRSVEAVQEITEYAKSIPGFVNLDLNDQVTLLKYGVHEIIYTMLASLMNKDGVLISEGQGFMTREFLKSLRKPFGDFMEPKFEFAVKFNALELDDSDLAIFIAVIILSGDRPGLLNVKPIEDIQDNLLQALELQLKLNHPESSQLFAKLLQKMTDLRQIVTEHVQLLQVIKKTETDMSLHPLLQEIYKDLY
# Summary of the method: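 GeneBLAzer PPARg UAS-bla HEK293H cells carrying a UAS-driven beta-lactamase reporter were plated at 3000 cells/well, preincubated 5 h at 37C, then given compound for 17 h at 37C; LiveBLAzer B/G FRET substrate was read after 1 h at room temperature.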
# [3] = qHTS assay to identify small molecule antagonists of the peroxisome proliferator-activated receptor gamma (PPARg) signaling pathway - cell viability counter screen (AID 743194); details: PPARg-bla HEK293H viability, CellTiter-Glo luminescence, 17 h, co-treated with 50 nM rosiglitazone; activity change, negative = cytotoxicity: at 62.6 µM (top of the series); note: nearly all actives have a fitted effect of over 55% in size; note: potency is the fitted concentration of half-maximal effect
# Summary of the method: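 PPARg-UAS-bla HEK293H cells were plated, rested 5 h at 37 C, then treated with compounds plus rosiglitazone (50 nM final) for 17 h at 37 C; viability was then read by CellTiter-Glo luminescence after 30 min at room temperature.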
# [4] = qHTS assay for small molecule agonists of the antioxidant response element (ARE) signaling pathway (AID 743202; active = well fitted activation curve with a large enough effect in the signal ratio in the repeat runs, not every such curve was filed as active; inconclusive = weak or mixed curves, or effect the other way; inactive = no such curve, though single readings can be large or run the other way; the % refers to the signal ratio; note: potency is the fitted concentration of half-maximal effect); details: HepG2 ARE-bla reporter, beta-lactamase FRET, 16 h; activation: at 73.3 µM (top of the series) unless noted
# Summary of the method: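 Steps: seed ARE-bla HepG2 cells (2,000/well); incubate 5 h at 37 C; add compounds by pin tool; incubate 16 h at 37 C; add FRET substrate; read fluorescence after 2 h at RT.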
# [5] = qHTS assay for small molecule agonists of the antioxidant response element (ARE) signaling pathway - cell viability counter screen (AID 743203; calls by dose curve; note: potency is the fitted concentration of half-maximal effect; nearly all actives have a fitted effect of over 55% in size); details: ARE-bla HepG2 viability, CellTiter-Glo luminescence, 16 h; viability change, negative = cytotoxic: at 73.3 µM (top of the series)
# Summary of the method: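 Viability counter screen: stably transfected ARE-bla HepG2 line, 16 hrs compound exposure at 37C/5% CO2, ATP-based CellTiter-Glo luminescence measured in the reporter wells.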
# [6] = qHTS assay for small molecule activators of the heat shock response signaling pathway (AID 743210; active = well fitted activation curve with a large enough effect in the signal ratio in the repeat runs, with a control signal flat, not every such curve was filed as active; inconclusive = weak or mixed curves; the % refers to the signal ratio; note: potency is the fitted concentration of half-maximal effect); details: HeLa HSE-bla reporter, beta-lactamase ratio, 5 h; activation: at 62.6 µM (top of the series)
# Summary of the method: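 Activation of heat shock element-controlled beta-lactamase expression is measured in HeLa cells by LiveBLAzer FRET fluorescence, with compound exposure lasting 5 h at 37 C and substrate loading 2.5 h at room temperature.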
# [7] = qHTS assay to identify small molecule agonists of the peroxisome proliferator-activated receptor delta (PPARd) signaling pathway - cell viability counter screen (AID 743211); details: PPARd-bla HEK293H viability, CellTiter-Glo luminescence, 17 h; activity change, negative = cytotoxicity: at 62.6 µM (top of the series); note: nearly all actives have a fitted effect of over 55% in size; note: potency is the fitted concentration of half-maximal effect
# Summary of the method: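 Counter screen for cytotoxicity run in parallel with the PPARd reporter screen. Beta-lactamase reporter HEK293H cells exposed to compounds 17 h; ATP-based CellTiter-Glo luminescence quantified viability.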
# [8] = qHTS assay to identify small molecule antagonists of the peroxisome proliferator-activated receptor delta (PPARd) signaling pathway - cell viability counter screen (AID 743213); details: PPARd-bla HEK293H viability, CellTiter-Glo luminescence, 17 h; viability change, negative = cytotoxic: at 62 µM (top of the series) unless noted; note: nearly all actives have a fitted effect of over 50% in size; note: potency is the fitted concentration of half-maximal effect
# Summary of the method: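 Viability counter-screen, qHTS format: PPARd-bla HEK293H, L165041 300 nM final, 17 h compound exposure at 37 C, CellTiter-Glo luminescence after 30 min RT.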
# [9] = molecular target: Peroxisome proliferator-activated receptor delta (Homo sapiens) (UniProt Q03181); assay: qHTS assay to identify small molecule antagonists of the peroxisome proliferator-activated receptor delta (PPARd) signaling pathway (AID 743215; active = well fitted inhibition curve with a large enough effect in the signal ratio in the repeat runs, not every such curve was filed as active; inconclusive = weak or mixed curves, or effect the other way; inactive = no such curve, though single readings can be large or run the other way; the % refers to the signal ratio;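 note: cells stimulated with agonist L165041 at 300 nM final during compound exposure; % is set by controls: 0 for no effect and ±100 for the full control effect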); details: HEK293H PPARd-UAS-bla, beta-lactamase FRET ratio, antagonist, 17 h; ratio activity, negative = inhibition: at 62 µM (top of the series) unless noted
# UniProt Q03181, sequence (Q03181 whole entry, looked up): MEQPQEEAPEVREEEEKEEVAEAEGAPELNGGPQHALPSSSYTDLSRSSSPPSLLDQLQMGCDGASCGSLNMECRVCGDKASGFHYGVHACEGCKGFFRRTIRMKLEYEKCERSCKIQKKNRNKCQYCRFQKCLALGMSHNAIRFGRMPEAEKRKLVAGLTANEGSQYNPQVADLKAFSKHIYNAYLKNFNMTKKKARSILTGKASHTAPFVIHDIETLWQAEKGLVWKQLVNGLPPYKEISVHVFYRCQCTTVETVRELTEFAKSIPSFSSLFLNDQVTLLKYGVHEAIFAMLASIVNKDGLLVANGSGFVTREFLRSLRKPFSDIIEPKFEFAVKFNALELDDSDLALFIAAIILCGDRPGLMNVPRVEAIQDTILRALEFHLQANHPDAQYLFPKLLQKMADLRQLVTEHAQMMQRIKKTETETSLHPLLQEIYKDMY
# Summary of the method: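 Plated HEK293H PPARd-bla cells rested 5 h at 37 C and 5% CO2. Compound, then agonist L165041 at 300 nM final, was added; 17 h at 37 C followed. Substrate loading, 2 h room temperature, fluorescence measured.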
# [10] = qHTS assay to identify small molecule antagonists of the farnesoid-X-receptor (FXR) signaling pathway - cell viability counter screen (AID 743221; active = well fitted cell-killing curve with a large enough effect in the repeat runs, not every such curve was filed as active; inconclusive = weak or mixed curves, or effect the other way; inactive = no such curve, though single readings can be large or run the other way; note: potency is the fitted concentration of half-maximal effect; nearly all actives have a fitted effect of over 50% in size); details: FXR-bla HEK293T viability, CellTiter-Glo luminescence, 16 h; activity change, negative = cytotoxicity: at 62.6 µM (top of the series)
# Summary of the method: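 Multiplexed counter screen: viability of FXR-bla HEK 293T cells under agonist stimulation by chenodeoxycholic acid (50 uM, final) and test compound for 16 h at 37 C, measured by CellTiter-Glo luminescence in the reporter wells.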
# [11] = molecular target: Peroxisome proliferator-activated receptor delta (Homo sapiens) (UniProt Q03181); assay: qHTS assay to identify small molecule agonists of the peroxisome proliferator-activated receptor delta (PPARd) signaling pathway (AID 743212; calls by dose curve; note: % is set by controls: 0 for no effect and ±100 for the full control effect); details: HEK293H PPARd-UAS-bla, beta-lactamase FRET ratio, 17 h; activation: at 62.6 µM (top of the series) unless noted
# Summary of the method: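 Cells expressing a UAS-driven beta-lactamase reporter (PPARd-bla HEK293H) were given test compounds after a 5 h settle and kept at 37 C. Reporter activity was then measured as FRET fluorescence using LiveBLAzer B/G substrate.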
# [12] = molecular target: Vitamin D3 receptor (Homo sapiens) (UniProt P11473); assay: qHTS assay to identify small molecule agonists of the vitamin D receptor (VDR) signaling pathway (AID 743222; calls by dose curve; note: % is set by controls: 0 for no effect and ±100 for the full control effect); details: HEK293T VDR-UAS-bla, beta-lactamase FRET ratio, 16 h
# UniProt P11473, sequence (P11473 whole entry, looked up): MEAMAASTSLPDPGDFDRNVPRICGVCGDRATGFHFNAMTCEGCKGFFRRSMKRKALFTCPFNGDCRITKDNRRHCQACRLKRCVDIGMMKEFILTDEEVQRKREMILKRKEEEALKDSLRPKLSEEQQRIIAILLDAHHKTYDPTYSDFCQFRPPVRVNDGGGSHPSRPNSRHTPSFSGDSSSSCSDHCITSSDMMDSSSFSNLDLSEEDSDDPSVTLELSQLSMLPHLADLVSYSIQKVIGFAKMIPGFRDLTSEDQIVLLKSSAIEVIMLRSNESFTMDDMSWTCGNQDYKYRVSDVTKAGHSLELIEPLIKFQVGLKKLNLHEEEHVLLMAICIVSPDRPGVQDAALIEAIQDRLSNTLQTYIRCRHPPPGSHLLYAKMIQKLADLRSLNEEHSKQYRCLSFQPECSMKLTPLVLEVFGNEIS
# Summary of the method: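 Fluorescence from cleaved LiveBLAzer B/G FRET substrate served as readout. VDR-bla cells had been treated 16 h at 37C with test compounds in DMSO, following a 4 h settling period, and substrate was loaded for 2 h at RT.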
# [13] = molecular target: Vitamin D3 receptor (Homo sapiens) (UniProt P11473); assay: qHTS assay to identify small molecule antagonists of the vitamin D receptor (VDR) signaling pathway (AID 743223; active = well fitted inhibition curve with a large enough effect in the signal ratio in the repeat runs, not every such curve was filed as active; inconclusive = weak or mixed curves, or effect the other way; inactive = no such curve, though single readings can be large or run the other way; the % refers to the signal ratio; note: % is set by controls: 0 for no effect and ±100 for the full control effect); details: VDR-UAS-bla HEK293T, beta-lactamase FRET ratio, 16 h
# Summary of the method: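 Cells carrying a VDR-driven beta-lactamase reporter (VDR-bla) were co-treated with compound and 3 nM final 1alpha,25-dihydroxyvitamin D3 for 16 h at 37C; reporter activity was measured as FRET substrate fluorescence after 2 h at room temperature.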
# [14] = qHTS assay for small molecule activators of the heat shock response signaling pathway - cell viability counter screen (AID 743209); details: HSE-bla HeLa viability, CellTiter-Glo luminescence, 5 h; activity change, negative = cytotoxicity: at 62.6 µM (top of the series); note: % is set by controls: 0 for no effect and ±100 for the full control effect; nearly all actives have a fitted effect of over 50% in size
# Summary of the method: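 Viability of HSE-bla HeLa cells is measured with CellTiter-Glo in the wells already used for the reporter read. Compound exposure lasts 5 h at 37 C, and luminescence is read after 30 min at room temperature.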
# [15] = molecular target: Bile acid receptor (Homo sapiens) (UniProt Q96RI1); assay: qHTS assay to identify small molecule antagonists of the farnesoid-X-receptor (FXR) signaling pathway (AID 743217; active = well fitted inhibition curve with a large enough effect in the signal ratio in the repeat runs, not every such curve was filed as active; inconclusive = weak or mixed curves, or effect the other way; inactive = no such curve, though single readings can be large or run the other way; the % refers to the signal ratio; note: % is set by controls: 0 for no effect and ±100 for the full control effect); details: HEK293T FXR-UAS-bla, beta-lactamase ratio, CDCA-stimulated, 16 h
# UniProt Q96RI1, sequence (Q96RI1 whole entry, looked up): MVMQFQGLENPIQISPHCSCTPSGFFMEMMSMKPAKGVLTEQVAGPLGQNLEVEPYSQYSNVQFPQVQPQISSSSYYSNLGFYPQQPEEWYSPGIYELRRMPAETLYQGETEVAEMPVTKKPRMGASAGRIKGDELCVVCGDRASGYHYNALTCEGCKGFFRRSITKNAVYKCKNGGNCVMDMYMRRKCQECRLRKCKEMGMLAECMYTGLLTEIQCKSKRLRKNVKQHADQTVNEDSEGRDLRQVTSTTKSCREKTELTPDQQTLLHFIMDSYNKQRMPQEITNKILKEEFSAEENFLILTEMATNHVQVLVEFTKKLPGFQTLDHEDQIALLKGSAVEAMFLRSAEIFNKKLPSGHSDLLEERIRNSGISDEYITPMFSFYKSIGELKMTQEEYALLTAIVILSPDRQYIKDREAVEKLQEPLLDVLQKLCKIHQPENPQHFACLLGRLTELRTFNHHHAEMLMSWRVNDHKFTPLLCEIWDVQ
# Summary of the method: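 Screen of the Tox21 10K library in quantitative HTS format using FXR-UAS-bla HEK 293T reporter cells. Agonist chenodeoxycholic acid, 50 uM final, added with compounds; 16 h incubation at 37 °C; beta-lactamase FRET fluorescence measured.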
# [16] = qHTS assay to identify small molecule agonists of the farnesoid-X-receptor (FXR) signaling pathway - cell viability counter screen (AID 743218); details: FXR-bla HEK293T viability, CellTiter-Glo luminescence, 16 h; viability change, negative = cytotoxic: at 62.6 µM (top of the series) unless noted; note: potency is the fitted concentration of half-maximal effect; nearly all actives have a fitted effect of over 45% in size
# Summary of the method: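 Viability of FXR-bla HEK 293T cells is measured by ATP-based CellTiter-Glo luminescence following 16 h compound treatment at 37 C and a prior 2 h room-temperature beta-lactamase substrate step.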
# Tags give direction and shape of the fitted curve or compound fluorescence and quenching.
structure (smiles),measurement,setting,value
CC(C)c1ccc(O)c(C(C)C)c1,Potency,[1],inconclusive: 61.1 µM [cytotoxic]
same,"ratio activity, negative = inhibition",[2],inconclusive: 23.2%
same,Potency,[3],inactive
same,Potency,[4],"inconclusive: 61.1 µM [falling, partial curve, poor fit]"
same,Potency,[5],"inconclusive: 77 µM [cytotoxic, single point]"
same,Potency,[6],inconclusive: 51.9 µM
same,Potency,[7],"inconclusive: 61.6 µM [cytotoxic, partial curve, poor fit]"
same,Potency,[8],"inconclusive: 49 µM [cytotoxic, single point]"
same,Potency,[9],inactive
same,Potency,[10],"inconclusive: 19.5 µM [falling, partial curve, poor fit]"
COC1CCC=CO1 (stereo not given),Potency,[1],inconclusive: 69.1 µM [cytotoxic]
same,Potency,[2],"inconclusive: 55.3 µM [activator, single point]"
same,Potency,[4],inactive
same,Potency,[11],inactive
same,Potency,[8],inactive
NC(=O)N1c2ccccc2C=Cc2ccccc21,Potency,[1],"inconclusive: 13.3 µM [cytotoxic, partial curve, poor fit]"
same,"ratio activity, negative = inhibition",[2],inconclusive: 8.42% and inconclusive: 1.16%
same,Potency,[11],inactive
CC(C)c1ccc(C#N)cc1,Potency,[1],inactive
same,Potency,[2],inactive
same,Potency,[4],inactive
same,Potency,[7],inactive
C/C=C1/C(=O)C[C@H]2[C@@H]3CCC4=CC(=O)CC[C@]4(C)[C@H]3CC[C@]12C,Potency,[1],"inconclusive: 54.3 µM [cytotoxic, partial curve]"
same,Potency,[4],"inconclusive: 60.9 µM [rising, single point]"
same,Potency,[6],active: 28.5 µM
same,Potency,[7],"inconclusive: 48.8 µM [cytotoxic, single point]"
c1ccc(Nc2ccccc2)cc1,Potency,[1],"inconclusive: 38.5 µM [cytotoxic, partial curve, poor fit]"
same,"ratio activity, negative = inhibition",[2],inconclusive: 21.4%
same,Potency,[3],inactive
same,activation,[4],inconclusive: 31.9%
same,Potency,[8],inactive
same,activation,[12]; activation: at 63.5 µM (top of the series) unless noted,inconclusive: 2.97%
same,activation,[12]; at 63.5 µM (top of the series),inactive: -4.75%
same,"activity change, negative = inhibition","[13]; activity change, negative = inhibition: at 61 µM (top of the series) unless noted",inconclusive: -46.9%
same,"activity change, negative = inhibition",[13]; at 61 µM (top of the series),inactive: 1.34%
C[C@]12C[C@H](O)[C@H]3[C@@H](CCC4=CC(=O)CC[C@@]43C)[C@@H]1CC[C@@H]2C(=O)CO,Potency,[1],inactive
same,"ratio activity, negative = inhibition",[2],inconclusive: -0.581% and inconclusive: 27.9% and inconclusive: 6.61%
same,Potency,[3],"inconclusive: 75 µM [rising, partial curve, poor fit]"
same,Potency,[14],inactive
same,Potency,[6],"inconclusive: 55.1 µM [rising, single point]"
same,Potency,[8],"inconclusive: 5.49 µM [cytotoxic, single point]"
same,"ratio activity, negative = inhibition",[9],inconclusive: 26.3%
same,"activity change, negative = inhibition","[15]; activity change, negative = inhibition: at 62.6 µM (top of the series) unless noted",inconclusive: 5.93%
same,"activity change, negative = inhibition",[15]; at 62.6 µM (top of the series),inactive: -13.5% and inactive: 0.649%
same,Potency,[16],"inconclusive: 21.9 µM [rising, single point]"
